The campaign covered roughly 310,000 compounds. About 14,000 (4.5%) showed an effect of 50% or more. The effect is printed as a negative number. The list shows a part of the results.
Target: human ether-à-go-go-related gene (hERG) potassium channel (human, UniProt Q12809)
Assay: primary screen, population patch clamp on CHO cells stably expressing hERG
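Note: peak tail current of the secondary pulse compared with the same well before compound.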

Chain of human ether-à-go-go-related gene (hERG) potassium channel (Q12809 whole entry, looked up): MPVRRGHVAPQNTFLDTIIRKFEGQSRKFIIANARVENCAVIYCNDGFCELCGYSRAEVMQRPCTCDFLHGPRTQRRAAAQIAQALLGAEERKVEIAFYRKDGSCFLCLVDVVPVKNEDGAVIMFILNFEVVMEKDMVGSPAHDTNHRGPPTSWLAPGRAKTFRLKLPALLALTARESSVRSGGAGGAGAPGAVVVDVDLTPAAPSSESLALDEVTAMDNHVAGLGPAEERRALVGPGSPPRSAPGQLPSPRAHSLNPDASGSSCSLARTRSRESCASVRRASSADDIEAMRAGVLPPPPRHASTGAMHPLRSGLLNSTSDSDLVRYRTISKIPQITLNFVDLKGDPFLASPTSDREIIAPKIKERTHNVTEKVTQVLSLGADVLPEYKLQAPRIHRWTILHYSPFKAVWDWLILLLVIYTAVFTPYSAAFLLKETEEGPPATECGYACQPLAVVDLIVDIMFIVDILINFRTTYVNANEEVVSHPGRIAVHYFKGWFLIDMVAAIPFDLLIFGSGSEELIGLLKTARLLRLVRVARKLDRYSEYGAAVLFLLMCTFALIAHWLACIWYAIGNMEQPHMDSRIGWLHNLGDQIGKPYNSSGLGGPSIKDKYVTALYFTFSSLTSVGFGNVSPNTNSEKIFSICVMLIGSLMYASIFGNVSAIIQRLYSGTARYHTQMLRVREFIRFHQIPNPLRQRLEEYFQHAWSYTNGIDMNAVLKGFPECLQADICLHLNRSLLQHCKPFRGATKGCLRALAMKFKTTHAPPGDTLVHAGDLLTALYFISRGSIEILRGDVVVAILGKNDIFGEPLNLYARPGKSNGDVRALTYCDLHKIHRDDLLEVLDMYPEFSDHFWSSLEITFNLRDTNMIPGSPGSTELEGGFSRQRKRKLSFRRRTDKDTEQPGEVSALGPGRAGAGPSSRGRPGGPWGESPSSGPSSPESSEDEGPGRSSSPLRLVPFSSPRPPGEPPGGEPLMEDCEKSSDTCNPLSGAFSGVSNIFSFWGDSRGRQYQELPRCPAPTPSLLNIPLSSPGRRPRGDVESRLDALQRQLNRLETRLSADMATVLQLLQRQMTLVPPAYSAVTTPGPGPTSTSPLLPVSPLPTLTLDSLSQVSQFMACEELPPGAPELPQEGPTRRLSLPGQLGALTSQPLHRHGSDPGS

Row | Compound | hERG current change (%, negative = inhibition) at 10uM [%]
1 | O=C(O)c1ccc(CP(=O)(c2ccccc2)c2ccccc2)cc1 | 22.4
2 | COc1cc(OC)cc(C(=O)Nc2cccc3ccccc23)c1 | 12.4
3 | COc1ccc(C(CNC(=O)c2ccc(OC)c(S(=O)(=O)N3CCCC3)c2)N2CCCC2)cc1 (stereo not drawn) | 9.12
4 | COc1ccc(C(=O)Nc2ccc3c(c2)OCO3)cc1OC | -12.6
5 | COc1ccc(C2Nc3cc(OC)ccc3-n3cccc32)cc1 (stereo not drawn) | 1.93
6 | Cc1ccc(-c2nc3ncccn3c2Nc2ccccc2C)o1 | -12.3
7 | COc1ccc(S(=O)(=O)N2CCc3ccccc3C2)cc1OC | -18.8
8 | COc1ccc(CN2CCCC(CO)(Cc3ccc(F)cc3)C2)c(OC)c1OC (stereo not drawn) | -71.1
9 | O=C(c1ccc(Br)s1)N1CCN(S(=O)(=O)c2ccccc2)CC1 | -34.4
10 | O=C(Nc1ccc(F)c(F)c1)c1cc(S(=O)(=O)N2CCN(c3ccccn3)CC2)ccc1F | 7.19
11 | O=C(Nc1ccccc1O)c1c(O)c2c([nH]c1=O)CCCC2 | 28.6
12 | COc1cc(-n2cnnn2)ccc1S(=O)(=O)N1CCOCC1 | -16.2
13 | CCc1nc2ccccc2c(C(=O)OCCN2C(=O)c3ccccc3C2=O)c1C | -12.2
14 | CCOC(=O)c1c(NC(=O)CNCCOC)sc2c1CCCC2 | -6.27
15 | COc1ccccc1N1CCN(c2cc(=O)n(-c3ccccc3Cl)c(=O)[nH]2)CC1 | 8.28
16 | CCOc1ccc(NC(=O)C2=NN(c3ccccc3)C(=O)CC2)cc1S(=O)(=O)N1CCCCC1 | -8.8
17 | O=C(CNc1ccc(F)cc1)N/N=C1\CCCc2ccccc21 | 0.412
18 | O=C(Nc1ccc(F)cc1F)c1cc2n(n1)C(C(F)(F)F)C1CCCCC1N2 (stereo not drawn) | 11.1
19 | Cc1ccc(-c2cc(-c3ccccc3C)[nH]n2)c(O)c1 | -0.266
20 | COc1ccc(CCNC(=O)CSc2nnc(Cc3cccn3C)n2C)cc1OC | 1.51
21 | O=C(Nc1ccccc1-c1ccccc1)c1cccc(C(F)(F)F)c1 | 11.4
22 | Cc1cc(S(=O)(=O)N2CCN(c3ccc(F)cc3)CC2)ccc1-n1cnnn1 | -21

Row | Compound | hERG current change (%, negative = inhibition) at 10uM [%]
23 | O=C(COC(=O)c1cccs1)Nc1ccc(S(=O)(=O)N2CCOCC2)cc1 | -8.57
24 | O=C(c1ccco1)N1CCN(S(=O)(=O)c2ccc3c(c2)CCN3C(=O)C2CC2)CC1 | -16.4
25 | Cc1[nH]n(-c2ccccc2)c(=O)c1N=Nc1ccc(F)cc1 | 12.8
26 | COc1ccc(C(=O)NCc2nnc(SCC(=O)N3CCCCC3)o2)cc1 | 29.8
27 | Cc1ccc(-n2nnnc2SCC(=O)NCC2(N3CCCCC3)CCCCC2)c(C)c1 | -284
28 | Cc1nn(C)c(C(=O)N/N=C/c2ccncc2)c1Cl | 7.35
29 | NC(=O)C1(c2ccccc2)CCCN1C(=O)c1ccccc1Br (stereo not drawn) | 7.39
30 | Cc1c(C(=O)Nc2ccccc2)sc2nc[nH]c(=O)c12 | -38.1
31 | O=C(Nc1ccc(-c2nnc(-c3ccccc3)o2)cc1)C(F)(F)F | 11.3
32 | COC(=O)CCc1c(C)c(C#N)c2nc3ccccc3n2c1N1CCCC1 | 0.655
33 | COc1ccc(C)cc1NC(=O)CSc1nnc2ccc(-c3ccncc3)nn12 | -48.7
34 | O=C(NCCc1c[nH]c2ccccc12)C(=O)NCC1OCCN1S(=O)(=O)c1ccc(F)cc1 (stereo not drawn) | -29.8
35 | O=C(NC1=NCCS1)c1sc2cc(Cl)cc(Cl)c2c1Cl | 15.2
36 | CCOc1ccc(CCNC(=O)COC(=O)c2ccc(Cl)nc2)cc1OCC | 6.84
37 | CCOc1ccc(N(C(C)C(=O)Nc2ccc(OC)cc2)S(C)(=O)=O)cc1 (stereo not drawn) | -7.19
38 | COc1cc(C(=O)NCC2CCCO2)ccc1OCc1ccccc1 (stereo not drawn) | -2.26
39 | CCOC(=O)c1c(NC(=O)C2CCCN(S(=O)(=O)c3ccccc3)C2)sc2c1CCCC2 (stereo not drawn) | -3.85
40 | Cc1cc2c(cc1C)N(C(=O)CSC1=NCCS1)C(C)(C)c1ssc(=S)c1-2 | -1.12
41 | Cc1ccc(Cl)cc1NC(=O)NCCN1CCCCC1 | -24.2
42 | COc1ccc(C2SCC(=O)N2C)cc1 (stereo not drawn) | 1.55
43 | O=C1CCC(C(=O)N2CCSCC2)CN1CCc1cccc(F)c1 (stereo not drawn) | 13.8
44 | Cc1ccc(C(=O)NCCCNC(=O)c2ccccc2C)cn1 | 4.94

Row | Compound | hERG current change (%, negative = inhibition) at 10uM [%]
45 | COc1ccccc1CCc1nnc(CCC(=O)NC(C)Cc2cccs2)o1 (stereo not drawn) | -12.6
46 | Cc1nccn1CCCNC(=O)CC1C(=O)NCCN1Cc1ccc(F)cc1Cl (stereo not drawn) | 18.6
47 | Cc1ccc(NC(=O)N2CCc3ccccc3C2)c(C)c1 | 1.45
48 | Cc1onc(-c2ccccc2)c1C(=O)Nc1cccc2nsnc12 | 13.4
49 | CCN(CCCC(=O)c1ccc(F)cc1)CCc1ccccc1.Cl | -84.5
50 | COC(=O)c1ccc(COc2ccccc2/C=C(\C#N)C(=O)Nc2ccc(C)cc2C)cc1 | -11.1
51 | COc1cccc(C2Nc3cc(Cl)c(S(N)(=O)=O)cc3S(=O)(=O)N2)c1 (stereo not drawn) | 2.57
52 | COC(=O)C1=C(c2ccc(OC)c(OC)c2)C[C@@H]2CC[C@H]1N2C(=O)NCCOc1ccc(OC)cc1 | 7.33
53 | Cc1ncsc1C(=O)N1N=C2/C(=C/c3ccccc3)CCCC2C1c1ccccc1 (stereo not drawn) | -0.298
54 | Cc1cc(NC2C3CC4CC(C3)CC2C4)n2ncnc2n1 (stereo not drawn) | -48
55 | CCc1ccc(N(CC(=O)Nc2sc3c(c2C(=O)OC)CCCC3)S(C)(=O)=O)cc1 | 6.65
56 | S=c1[nH]nc(-c2cccs2)n1/N=C/c1cn(-c2ccccc2)nc1-c1cccs1 | 27.4
57 | CCC(=O)Nc1nc2ccccc2n1CCN(C)C | -0.556
58 | O=C(Nc1nnc(-c2ccco2)o1)c1ccc([N+](=O)[O-])s1 | 12.6
59 | COc1cccc(OC)c1C(=O)Nn1c(C2CCC2)nc2ccccc2c1=O | 10.4
60 | O=C(NC1CCCCC1NC(=O)c1cccs1)c1cccs1 (stereo not drawn) | 7.76
61 | CCc1nn2c(N3CCOCC3)cc(C)nc2c1-c1ccc(F)cc1 | 0.767
62 | O=C(OCn1nnc2ccccc2c1=O)C12CC3CC(CC(O)(C3)C1)C2 | 13.5
63 | CN(C)S(=O)(=O)c1ccc(N2CCCC2)c(C(=O)Nc2ccccc2OC(F)F)c1 | -54.2
64 | CCn1c(SCC(=O)NCCc2ccccc2)nnc1-c1cccs1 | -27.6
65 | COc1cc(/C=N/NC(=O)C2COc3ccccc3O2)ccc1O (stereo not drawn) | -44.3
66 | O=C(Nc1cnccn1)c1cccc(C(F)(F)F)c1 | -3.45

Row | Compound | hERG current change (%, negative = inhibition) at 10uM [%]
67 | COc1ccc(/C=N/Nc2ncnc3c2[nH]c2ccc(C)cc23)c(OC)c1OC | 0.585
68 | COCc1cc(C)nc(Nc2ccccc2C)c1C#N | 1.19
69 | CN(C)c1ccc(NC(=O)c2cn(-c3ccccc3)nc2-c2cccs2)cc1 | 6.26
70 | Cc1ccccc1CN1CCN(S(=O)(=O)c2ccc(F)cc2)CC1 | -6.15
71 | O=C(CSc1ccc2c(c1)OCCO2)NC(=O)Cc1ccccc1 | -2.78
72 | CCCCCCn1c(SCC(C)C)nc2c1c(=O)[nH]c(=O)n2C | 10.3
73 | COc1ccccc1CNC(=O)CN1C(=O)NC2(CCCc3sccc32)C1=O (stereo not drawn) | -3.06
74 | CC(C)=CCc1c2c(c3occ(-c4ccc(O)cc4)c(=O)c3c1O)C=CC(C)(C)O2 | 20.3
75 | COc1cc2c(cc1NCc1ccccn1)oc1ccccc12 | -11
76 | Cc1cc(C)c2nc(SCC(=O)N(C)C3CCS(=O)(=O)C3)cc(C)c2c1 (stereo not drawn) | 10.9
77 | O=C(CSc1nnc(COc2ccc(Br)cc2)o1)NC1CCCCC1 | 9.55
78 | COc1ccc(C(=S)N2CCOCC2)cc1OS(=O)(=O)c1ccc(Br)cc1 | -70
79 | O=C(Nc1ccccc1-c1ccccc1)c1cccs1 | -9
80 | Cc1ccc(C(=O)c2ccccc2C(=O)Nc2ccccc2)cc1 | 5.99
81 | C/C(=N\NC(=S)NC(C)C)c1ccco1 | -2.14
82 | COc1ccc(C2CC(=O)C=C(NCc3ccc4c(c3)OCO4)C2)cc1 (stereo not drawn) | -73.1
83 | COc1cc(S(=O)(=O)Nc2ccc(C)cc2)ccc1N=Cc1c(C)[nH]n(-c2ccc(C)cc2)c1=O | 14.5
84 | NS(=O)(=O)c1ccc(CNC(=O)c2cc(-c3cccs3)nc3ccccc23)cc1 | 1.57
85 | CN1CCN(C(=O)c2ccc(-c3ccccc3)cc2)CC1 | -11.3
86 | Cc1cccc(CCNS(=O)(=O)c2ccc(S(=O)(=O)NC3CCCC3)cc2)c1 | 9.75
87 | O=C(CCS(=O)(=O)c1ccc(Br)cc1)N1CCN(c2ccccc2)CC1 | -39.8

— PMC4336329 (PLoS ONE, 2015)
